{"source": "patent US5475132A", "about": "“Antifungal agents based on amides containing a phenyl group” (Rhone-Poulenc Agrochimie, priority 1988, dated 1995)", "key": {"[1]": {"tested_on": "Phytophthora infestans", "assay": "whole plant or invertebrate", "conditions": "in Solanum lycopersicum, 168 h, read-out: inhibition of the development of the mould", "protocol": "Treatment of tomato mildew (Phytophthora infestans)\nTomato (Lycopersicum esculentum) plants, of the Marmande variety, are cultivated in pots. When these plants are a month old (5 to 6 leaf stage, height 12 to 15 cm), they are treated by spraying with a suspension or aqueous solution of the material to be tested, which is at the desired concentration and contains a surfactant which is a condensate of sorbitan monooleate with 20 molecules of ethylene oxide. This surfactant is at a concentration equal to half the concentration of the active material. Each tomato plant receives about 5 ml of the solution or dispersion. The treatment is carried out on two plants for each concentration of active material to be tested. Plants used as controls are treated with a solution which contains no active material, but contains the same surfactant at an identical concentration.\nAfter drying for 24 hours, each plant is infected by spraying with an aqueous suspension of spores of Phytophthora infestans, which is responsible for tomato mildew, at a rate of about 5 ml/plant (that is about 50,000 spores per plant).\nAfter this infection, the tomato plants are incubated for one day at about 15° C. in a saturated atmosphere, then for five days at about 17° C. and 70% to 90% relative humidity.\nSeven days after infection, the results obtained in the case of plants treated with the active material to be tested are compared with those obtained in the case of plants used as controls."}, "[2]": {"tested_on": "Plasmopara viticola", "assay": "Example B2: treatment of vine mildew (Plasmopara viticola) on vine cuttings", "conditions": "192 h, 330 ppm (0.33 g/l), vine cuttings, 8 days after infection, read-out: inhibition of the development of the mould"}}, "data": [{"smiles": "COCCN(C)C(=O)c1c(-c2ccc(OC)c(OC)c2)cc(-c2ccccc2)nc1C", "note": "[Compound 507]", "values": [{"measurement": "inhibition at 1000 ppm", "setting": "[1]", "result": "≥ 80", "unit": "%"}, {"measurement": "inhibition at 330 ppm", "setting": "[2]", "result": "≥ 80", "unit": "%"}]}, {"smiles": "CCN(CC)C(=O)c1ccc(Br)cc1-c1ccc(OC)c(OC)c1", "note": "[Compound 205]", "values": [{"measurement": "inhibition at 1000 ppm", "setting": "[1]", "result": "≥ 80", "unit": "%"}, {"measurement": "inhibition at 330 ppm", "setting": "[2]", "result": "≥ 80", "unit": "%"}]}, {"smiles": "C=C(C)c1ccc(C(=O)N(CC)CC)c(-c2ccc(OC)c(OC)c2)c1", "note": "[Compound 214]", "values": [{"measurement": "inhibition at 1000 ppm", "setting": "[1]", "result": "≥ 80", "unit": "%"}, {"measurement": "inhibition at 330 ppm", "setting": "[2]", "result": "≥ 80", "unit": "%"}]}, {"smiles": "COc1ccc(-c2nc(-c3ccc(Br)cc3)ccc2C(=O)N2CCOCC2)cc1OC", "note": "[Compound 385]", "values": [{"measurement": "inhibition at 1000 ppm", "setting": "[1]", "result": "≥ 80", "unit": "%"}, {"measurement": "inhibition at 330 ppm", "setting": "[2]", "result": "≥ 80", "unit": "%"}]}, {"smiles": "COc1ccc(-c2c(C(=O)N3CCOCC3)sc3ccccc23)cc1OC", "note": "[Compound 118]", "values": [{"measurement": "inhibition at 1000 ppm", "setting": "[1]", "result": "≥ 80", "unit": "%"}, {"measurement": "inhibition at 330 ppm", "setting": "[2]", "result": "≥ 80", "unit": "%"}]}, {"smiles": "COc1ccc(-c2c(C(=O)N3CCOCC3)sc3cccc(F)c23)cc1OC", "note": "[Compound 129]", "values": [{"measurement": "inhibition at 1000 ppm", "setting": "[1]", "result": "≥ 80", "unit": "%"}, {"measurement": "inhibition at 330 ppm", "setting": "[2]", "result": "≥ 80", "unit": "%"}]}, {"smiles": "COc1ccc(-c2c(Br)cccc2C(=O)N2CCOCC2)cc1OC", "note": "[Compound 223]", "values": [{"measurement": "inhibition at 1000 ppm", "setting": "[1]", "result": "≥ 80", "unit": "%"}, {"measurement": "inhibition at 330 ppm", "setting": "[2]", "result": "≥ 80", "unit": "%"}]}, {"smiles": "COCCN(C)C(=O)c1ccc(-c2ccc(Cl)cc2)nc1-c1ccc(OC)c(OC)c1", "note": "[Compound 379]", "values": [{"measurement": "inhibition at 1000 ppm", "setting": "[1]", "result": "≥ 80", "unit": "%"}, {"measurement": "inhibition at 330 ppm", "setting": "[2]", "result": "≥ 80", "unit": "%"}]}, {"smiles": "CCN(C)C(=O)c1c(-c2ccc(OC)c(OC)c2)cc(-c2ccccc2)nc1C", "note": "[Compound 506]", "values": [{"measurement": "inhibition at 1000 ppm", "setting": "[1]", "result": "≥ 80", "unit": "%"}, {"measurement": "inhibition at 330 ppm", "setting": "[2]", "result": "≥ 80", "unit": "%"}]}, {"smiles": "COc1ccc(-c2nc(-c3ccccc3)ccc2C(=O)N2CCOCC2)cc1OC", "note": "[Compound 301, N-[2-(3,4-dimathoxyphenyl)-6-phenylnicotinoyl]morpholine]", "values": [{"measurement": "inhibition at 1000 ppm", "setting": "[1]", "result": "≥ 80", "unit": "%"}, {"measurement": "inhibition at 330 ppm", "setting": "[2]", "result": "≥ 80", "unit": "%"}]}, {"smiles": "COc1ccc(-c2cc(-c3ccc(C)cc3)ccc2C(=O)N2CCOCC2)cc1OC", "note": "[Compound 203]", "values": [{"measurement": "inhibition at 1000 ppm", "setting": "[1]", "result": "≥ 80", "unit": "%"}, {"measurement": "inhibition at 330 ppm", "setting": "[2]", "result": "≥ 80", "unit": "%"}]}, {"smiles": "COc1ccc(-c2cc(-c3ccsc3)ccc2C(=O)N2CCOCC2)cc1OC", "note": "[Compound 238]", "values": [{"measurement": "inhibition at 1000 ppm", "setting": "[1]", "result": "≥ 80", "unit": "%"}, {"measurement": "inhibition at 330 ppm", "setting": "[2]", "result": "≥ 80", "unit": "%"}]}, {"smiles": "CCN(C)C(=O)c1sc2ccc(F)cc2c1-c1ccc(OC)c(OC)c1", "note": "[Compound 167]", "values": [{"measurement": "inhibition at 1000 ppm", "setting": "[1]", "result": "≥ 80", "unit": "%"}, {"measurement": "inhibition at 330 ppm", "setting": "[2]", "result": "≥ 80", "unit": "%"}]}, {"smiles": "CCN(C)C(=O)c1ccc(-c2ccc(F)cc2)nc1-c1ccc(OC)c(OC)c1", "note": "[Compound 350]", "values": [{"measurement": "inhibition at 1000 ppm", "setting": "[1]", "result": "≥ 80", "unit": "%"}, {"measurement": "inhibition at 330 ppm", "setting": "[2]", "result": "≥ 80", "unit": "%"}]}, {"smiles": "COc1ccc(-c2c(C(=O)N3CCOCC3)sc3ccc(F)cc23)cc1OC", "note": "[Compound 117]", "values": [{"measurement": "inhibition at 1000 ppm", "setting": "[1]", "result": "≥ 80", "unit": "%"}, {"measurement": "inhibition at 330 ppm", "setting": "[2]", "result": "≥ 80", "unit": "%"}]}, {"smiles": "COCCN(C)C(=O)c1ccc(-c2ccc(Br)cc2)nc1-c1ccc(OC)c(OC)c1", "note": "[Compound 393]", "values": [{"measurement": "inhibition at 1000 ppm", "setting": "[1]", "result": "≥ 80", "unit": "%"}, {"measurement": "inhibition at 330 ppm", "setting": "[2]", "result": "≥ 80", "unit": "%"}]}, {"smiles": "COc1ccc(-c2c(C(=O)N3CCCC(OC)C3)sc3ccccc23)cc1OC", "note": "(stereo not shown) [Compound 166]", "values": [{"measurement": "inhibition at 1000 ppm", "setting": "[1]", "result": "≥ 80", "unit": "%"}, {"measurement": "inhibition at 330 ppm", "setting": "[2]", "result": "≥ 80", "unit": "%"}]}]}
